The list shows a part of the results.
Assays:
Assay in all cases: glycan array binding signal (z-score within array); higher = stronger binding
Conditions in all cases: glycan notation: IUPAC condensed, linker removed
Fuc(a1-2)Gal = target: Fuc(a1-2)Gal
Method in brief: (§1)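 The binding signal is a Z-score computed within each array and averaged over linkers. Arrays of the same protein sequence at different concentrations or buffers were also averaged together. Data originate from 3228 arrays in the Consortium for Functional Glycomics database, kept only where the protein sequence was available.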

Fuc(a1-2)Gal(b1-3)GalNAc = target: Fuc(a1-2)Gal(b1-3)GalNAc
Method in brief: as §1

[1] = target: Fuc(a1-2)Gal(b1-3)GalNAc(a1-3)[Fuc(a1-2)]Gal(b1-4)Glc
Method in brief: as §1

[2] = target: Fuc(a1-2)Gal(b1-3)GalNAc(a1-3)[Fuc(a1-2)]Gal(b1-4)GlcNAc
Method in brief: as §1

[3] = target: Fuc(a1-2)Gal(b1-3)GalNAc(b1-3)Gal
Method in brief: as §1

[4] = target: Fuc(a1-2)Gal(b1-3)GalNAc(b1-3)Gal(a1-4)Gal(b1-4)Glc
Method in brief: as §1

[5] = target: Fuc(a1-2)Gal(b1-3)GalNAc(b1-4)[Neu5Ac(a2-3)]Gal(b1-4)Glc
Method in brief: as §1

Fuc(a1-2)Gal(b1-3)GlcNAc = target: Fuc(a1-2)Gal(b1-3)GlcNAc
Method in brief: as §1

[6] = target: Fuc(a1-2)Gal(b1-3)GlcNAc(b1-2)Man(a1-3)[Fuc(a1-2)Gal(b1-3)GlcNAc(b1-2)Man(a1-6)]Man(b1-4)GlcNAc(b1-4)GlcNAc
Method in brief: as §1

[7] = target: Fuc(a1-2)Gal(b1-3)GlcNAc(b1-2)Man(a1-3)[Fuc(a1-2)Gal(b1-3)GlcNAc(b1-2)Man(a1-6)]Man(b1-4)GlcNAc(b1-4)[Fuc(a1-6)]GlcNAc
Method in brief: as §1

[8] = target: Fuc(a1-2)Gal(b1-3)GlcNAc(b1-3)Gal(b1-4)Glc
Method in brief: as §1

[9] = target: Fuc(a1-2)Gal(b1-3)GlcNAc(b1-3)GalNAc
Method in brief: as §1

[10] = target: Fuc(a1-2)Gal(b1-3)GlcNAc(b1-3)[Fuc(a1-2)Gal(b1-3)GlcNAc(b1-6)]GalNAc
Method in brief: as §1

[11] = target: Fuc(a1-2)Gal(b1-3)GlcNAc(b1-3)[Gal(b1-4)GlcNAc(b1-6)]Gal(b1-4)Glc
Method in brief: as §1

[12] = target: Fuc(a1-2)Gal(b1-3)GlcNAc(b1-3)[Neu5Ac(a2-6)Gal(b1-4)GlcNAc(b1-6)]Gal(b1-4)Glc
Method in brief: as §1

[13] = target: Fuc(a1-2)Gal(b1-3)GlcNAc6S
Method in brief: as §1

[14] = target: Fuc(a1-2)Gal(b1-3)[Fuc(a1-4)]GlcNAc
Method in brief: as §1

[15] = target: Fuc(a1-2)Gal(b1-3)[Fuc(a1-4)]GlcNAc(b1-2)Man(a1-3)[Fuc(a1-2)Gal(b1-3)[Fuc(a1-4)]GlcNAc(b1-2)Man(a1-3)]Man(b1-4)GlcNAc(b1-4)GlcNAc
Method in brief: as §1

[16] = target: Fuc(a1-2)Gal(b1-3)[Fuc(a1-4)]GlcNAc(b1-2)Man(a1-3)[Fuc(a1-2)Gal(b1-3)[Fuc(a1-4)]GlcNAc(b1-2)Man(a1-6)]Man(b1-4)GlcNAc(b1-4)[Fuc(a1-6)]GlcNAc(b1-4)[Fuc(a1-6)]GlcNAc
Method in brief: as §1

[17] = target: Fuc(a1-2)Gal(b1-3)[Fuc(a1-4)]GlcNAc(b1-3)[Fuc(a1-3)[Gal(b1-4)]GlcNAc(b1-6)]Gal(b1-4)Glc
Method in brief: as §1

[18] = target: Fuc(a1-2)Gal(b1-3)[Fuc(a1-4)]GlcNAc(b1-3)[Gal(b1-4)GlcNAc(b1-6)]Gal(b1-4)Glc
Method in brief: as §1

Fuc(a1-2)Gal(b1-4)Glc = target: Fuc(a1-2)Gal(b1-4)Glc
Method in brief: as §1

Fuc(a1-2)Gal(b1-4)Glc6S = target: Fuc(a1-2)Gal(b1-4)Glc6S
Method in brief: as §1

Fuc(a1-2)Gal(b1-4)GlcNAc = target: Fuc(a1-2)Gal(b1-4)GlcNAc
Method in brief: as §1

[19] = target: Fuc(a1-2)Gal(b1-4)GlcNAc(b1-2)Man
Method in brief: as §1

[20] = target: Fuc(a1-2)Gal(b1-4)GlcNAc(b1-2)Man(a1-3)[Fuc(a1-2)Gal(b1-4)GlcNAc(b1-2)Man(a1-6)]Man(b1-4)GlcNAc(b1-4)GlcNAc
Method in brief: as §1

[21] = target: Fuc(a1-2)Gal(b1-4)GlcNAc(b1-2)Man(a1-3)[Fuc(a1-2)Gal(b1-4)GlcNAc(b1-2)Man(a1-6)]Man(b1-4)GlcNAc(b1-4)[Fuc(a1-6)]GlcNAc
Method in brief: as §1

[22] = target: Fuc(a1-2)Gal(b1-4)GlcNAc(b1-2)[Fuc(a1-2)Gal(b1-4)GlcNAc(b1-4)]Man(a1-3)[Fuc(a1-2)Gal(b1-4)GlcNAc(b1-2)Man(a1-6)]Man(b1-4)GlcNAc(b1-4)GlcNAc
Method in brief: as §1

[23] = target: Fuc(a1-2)Gal(b1-4)GlcNAc(b1-3)Gal(b1-4)GlcNAc
Method in brief: as §1

[24] = target: Fuc(a1-2)Gal(b1-4)GlcNAc(b1-3)Gal(b1-4)GlcNAc(b1-2)Man(a1-3)[Fuc(a1-2)Gal(b1-4)GlcNAc(b1-3)Gal(b1-4)GlcNAc(b1-2)Man(a1-6)]Man(b1-4)GlcNAc(b1-4)GlcNAc
Method in brief: as §1

[25] = target: Fuc(a1-2)Gal(b1-4)GlcNAc(b1-3)Gal(b1-4)GlcNAc(b1-3)Gal(b1-4)GlcNAc
Method in brief: as §1

[26] = target: Fuc(a1-2)Gal(b1-4)GlcNAc(b1-3)GalNAc
Method in brief: as §1

[27] = target: Fuc(a1-2)Gal(b1-4)GlcNAc(b1-3)[Fuc(a1-2)Gal(b1-4)GlcNAc(b1-6)]GalNAc
Method in brief: as §1

[28] = target: Fuc(a1-2)Gal(b1-4)GlcNAc(b1-3)[Fuc(a1-3)[Gal(b1-4)]GlcNAc(b1-6)]Gal(b1-4)Glc
Method in brief: as §1

[29] = target: Fuc(a1-2)Gal(b1-4)GlcNAc(b1-6)GalNAc
Method in brief: as §1

[30] = target: Fuc(a1-2)Gal(b1-4)GlcNAc6S
Method in brief: as §1

[31] = target: Fuc(a1-2)Gal(b1-4)[Fuc(a1-3)]GlcNAc
Method in brief: as §1

[32] = target: Fuc(a1-2)Gal(b1-4)[Fuc(a1-3)]GlcNAc(b1-2)Man(a1-3)[Fuc(a1-2)Gal(b1-4)[Fuc(a1-3)]GlcNAc(b1-2)Man(a1-6)]Man(b1-4)GlcNAc(b1-4)[Fuc(a1-6)]GlcNAc
Method in brief: as §1

[33] = target: Fuc(a1-2)Gal(b1-4)[Fuc(a1-3)]GlcNAc(b1-2)[Fuc(a1-2)Gal(b1-4)[Fuc(a1-3)]GlcNAc(b1-4)]Man(a1-3)[Fuc(a1-2)Gal(b1-4)[Fuc(a1-3)]GlcNAc(b1-2)Man(a1-6)]Man(b1-4)GlcNAc(b1-4)GlcNAc
Method in brief: as §1

[34] = target: Fuc(a1-2)Gal(b1-4)[Fuc(a1-3)]GlcNAc(b1-3)Gal(b1-4)[Fuc(a1-3)]GlcNAc
Method in brief: as §1

[35] = target: Fuc(a1-2)Gal(b1-4)[Fuc(a1-3)]GlcNAc(b1-3)Gal(b1-4)[Fuc(a1-3)]GlcNAc(b1-3)Gal(b1-4)[Fuc(a1-3)]GlcNAc
Method in brief: as §1

[36] = target: Fuc(a1-2)Gal(b1-4)[Fuc(a1-3)]GlcNAc(b1-3)GalNAc
Method in brief: as §1

[37] = target: Fuc(a1-2)Gal(b1-4)[Fuc(a1-3)]GlcNAc(b1-3)[Neu5Ac(a2-6)Gal(b1-4)GlcNAc(b1-6)]Gal(b1-4)Glc
Method in brief: as §1

[38] = target: Fuc(a1-2)Gal3S(b1-4)GlcNAc
Method in brief: as §1

[39] = target: Fuc(a1-2)Gal6S(b1-3)GlcNAc
Method in brief: as §1

[40] = target: Fuc(a1-2)Gal6S(b1-3)GlcNAc6S
Method in brief: as §1

Fuc(a1-2)Gal6S(b1-4)Glc = target: Fuc(a1-2)Gal6S(b1-4)Glc
Method in brief: as §1

[41] = target: Fuc(a1-2)Gal6S(b1-4)Glc6S
Method in brief: as §1

Fuc(a1-2)[Gal(a1-3)]Gal = target: Fuc(a1-2)[Gal(a1-3)]Gal
Method in brief: as §1

[42] = target: Fuc(a1-2)[Gal(a1-3)]Gal(b1-3)GalNAc
Method in brief: as §1

[43] = target: Fuc(a1-2)[Gal(a1-3)]Gal(b1-3)GalNAc(b1-3)Gal(a1-4)Gal(b1-4)Glc
Method in brief: as §1

[44] = target: Fuc(a1-2)[Gal(a1-3)]Gal(b1-3)GlcNAc
Method in brief: as §1

[45] = target: Fuc(a1-2)[Gal(a1-3)]Gal(b1-3)GlcNAc(b1-2)Man(a1-3)[Fuc(a1-2)[Gal(a1-3)]Gal(b1-3)GlcNAc(b1-2)Man(a1-6)]Man(b1-4)GlcNAc(b1-4)GlcNAc
Method in brief: as §1

[46] = target: Fuc(a1-2)[Gal(a1-3)]Gal(b1-3)GlcNAc(b1-2)Man(a1-3)[Fuc(a1-2)[Gal(a1-3)]Gal(b1-3)GlcNAc(b1-2)Man(a1-6)]Man(b1-4)GlcNAc(b1-4)[Fuc(a1-6)]GlcNAc
Method in brief: as §1

[47] = target: Fuc(a1-2)[Gal(a1-3)]Gal(b1-3)GlcNAc(b1-3)GalNAc
Method in brief: as §1

[48] = target: Fuc(a1-2)[Gal(a1-3)]Gal(b1-3)GlcNAc(b1-6)GalNAc
Method in brief: as §1

[49] = target: Fuc(a1-2)[Gal(a1-3)]Gal(b1-4)Glc
Method in brief: as §1

[50] = target: Fuc(a1-2)[Gal(a1-3)]Gal(b1-4)GlcNAc
Method in brief: as §1

[51] = target: Fuc(a1-2)[Gal(a1-3)]Gal(b1-4)GlcNAc(b1-2)Man
Method in brief: as §1

[52] = target: Fuc(a1-2)[Gal(a1-3)]Gal(b1-4)GlcNAc(b1-2)Man(a1-3)[Fuc(a1-2)[Gal(a1-3)]Gal(b1-4)GlcNAc(b1-2)Man(a1-6)]Man(b1-4)GlcNAc(b1-4)GlcNAc
Method in brief: as §1

Measured: glycan array binding signal (z-score)

B1: Fm1D (Escherichia coli) (protein)
chain: FSCNVDGGSSIGAGTTSVYVNLDPVIQPGQNLVVDLSQHISCWNDYGGWYDTDHINLVQGSAFAGSLQSYKGSLYWNNVTYPFPLTTNTNVLDIGDKTPMPLPLKLYITPVGAAGGVVIKAGEVIARIHMYKIATLGSGNPRNFTWNIISNNSVVMPTHHHHHH
-0.148: [11]
-0.145: [14] | Fuc(a1-2)Gal(b1-4)GlcNAc | [26]
-0.122: [36]
-0.136: [13] | [15] | [46]
-0.133: Fuc(a1-2)Gal(b1-3)GalNAc | [40]
-0.146: [5] | [12] | [17]
-0.123: [2]
-0.128: [1]
-0.139: [21] | [30] | Fuc(a1-2)[Gal(a1-3)]Gal
-0.135: [3] | [22] | [35]
-0.149: [18] | Fuc(a1-2)Gal6S(b1-4)Glc
-0.141: Fuc(a1-2)Gal | [9] | [16] | Fuc(a1-2)Gal(b1-4)Glc | [24] | [27] | [28] | [43] | [44]
-0.142: Fuc(a1-2)Gal(b1-3)GlcNAc | [6] | [32] | [33] | [52]
-0.134: [42]
-0.14: [4] | Fuc(a1-2)Gal(b1-4)Glc6S | [20] | [29] | [41]
-0.144: [10] | [23] | [25] | [38] | [39] | [47]
-0.138: [19] | [34]
-0.143: [37] | [50] | [51]
-0.131: [7] | [48]
-0.147: [8] | [31] | [45] | [49]
